Source: PMC11272940, “UNC-45 assisted myosin folding depends on a conserved FX3HY motif implicated in Freeman Sheldon Syndrome” (Nature Communications, 2024)
No constants are given. Whether binding was seen depends on the method and setting. Some entries that bind do so weakly or less than the wild type. One block for each molecule: values may come before it.

What was measured:
[1] = biological target: T1, UNC-45(K82E):myo complex (C. elegans) (UniProt G5EG62+P02566); assay: pull-down; recombinant HSP90 with the purified UNC-45(K82E):myo^F complex; both purified
[2] = biological target: T1, UNC-45(K82E):myo complex (C. elegans); assay: pull-down; recombinant HSP90 with the purified UNC-45(K82E):myo^UF complex; both purified
[3] = biological target: T2, UNC-45:myosin (in vitro mixed, wildtype UNC-45 and MHC-B motor domain) (C. elegans) (UniProt G5EG62+P02566); assay: pull-down; UNC-45, myosin and UFD-2 mixed in stoichiometric amounts, incubated at 4 °C (myosin folded); both purified
[4] = biological target: T2, UNC-45:myosin (in vitro mixed, wildtype UNC-45 and MHC-B motor domain) (C. elegans); assay: pull-down; UNC-45, myosin and UFD-2 mixed in stoichiometric amounts, incubated at 27 °C (myosin unfolded); both purified
[5] = biological target: T3, C. elegans myosin motor domain MHC-B (1-790), wildtype (C. elegans) (UniProt P02566); assay: cross-linking; XL-MS of the in vitro reconstituted UFD-2:UNC-45:myo^UF complex; 0.25 mM DSS, 20 mM HEPES pH 8.0, 150 mM NaCl, 25 °C, 30 min; both purified
T3 sequence: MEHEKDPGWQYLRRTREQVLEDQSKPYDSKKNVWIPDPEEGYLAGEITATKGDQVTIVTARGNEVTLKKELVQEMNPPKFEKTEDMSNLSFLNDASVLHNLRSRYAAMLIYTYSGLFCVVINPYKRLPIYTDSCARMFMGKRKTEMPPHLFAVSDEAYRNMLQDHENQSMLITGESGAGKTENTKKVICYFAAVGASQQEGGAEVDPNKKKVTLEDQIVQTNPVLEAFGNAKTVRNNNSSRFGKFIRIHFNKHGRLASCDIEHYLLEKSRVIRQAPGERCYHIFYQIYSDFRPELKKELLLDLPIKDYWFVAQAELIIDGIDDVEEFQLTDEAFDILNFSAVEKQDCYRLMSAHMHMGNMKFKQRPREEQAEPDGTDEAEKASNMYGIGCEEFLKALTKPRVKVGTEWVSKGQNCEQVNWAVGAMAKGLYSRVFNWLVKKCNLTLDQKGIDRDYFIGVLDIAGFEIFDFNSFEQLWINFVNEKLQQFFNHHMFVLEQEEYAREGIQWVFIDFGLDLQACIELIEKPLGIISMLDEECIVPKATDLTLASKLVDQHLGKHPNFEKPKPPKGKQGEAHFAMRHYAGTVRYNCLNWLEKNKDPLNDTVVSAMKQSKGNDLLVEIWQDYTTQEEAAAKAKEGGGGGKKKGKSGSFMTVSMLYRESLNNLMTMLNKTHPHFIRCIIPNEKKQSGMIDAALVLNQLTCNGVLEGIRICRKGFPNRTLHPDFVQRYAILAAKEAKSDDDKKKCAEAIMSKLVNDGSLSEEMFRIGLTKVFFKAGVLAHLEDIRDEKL

[6] = biological target: T3, C. elegans myosin motor domain MHC-B (1-790), wildtype (C. elegans); assay: tandem affinity co-purification + SEC; co-expressed in insect cells; HisTrap (myosin) then Strep-Tactin (UNC-45), then Superdex 200 in 20 mM HEPES pH 8.0, 150 mM NaCl
[7] = biological target: T4, fluorescein-labelled wildtype human MYH3 peptide … (human); assay: fluorescence polarisation; 2 μM N-terminally fluorescein-labelled peptide; UNC-45 from 180 μM (UNC-45B from 170 μM) diluted 1:1; 25 mM Tris pH 8.0, 150 mM NaCl; both purified
T4 sequence (peptide, fluorescein on the N-terminus): AHFSLIHYAG

[8] = biological target: T5, 547–588 myosin peptide (MHC-B) (C. elegans, UniProt P02566 547-588); assay: thermal shift assay; 1 μM UNC-45 or UNC-45 ΔUCS, 2 mM peptide, SYPRO Orange, 20 mM HEPES pH 8.0, 150 mM NaCl; triplicates; both purified
T5 construct: also called native peptide; identified myosin ligand; source: synthetic peptide
T5 peptide (looked up): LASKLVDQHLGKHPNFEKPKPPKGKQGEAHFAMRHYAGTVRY

Molecule: HSP90 (from UniProt Q18688 1-702)
binding [1]: binds
binding [2]: binds

B2: C. elegans UNC-45 K82E mutant (co-expressed with the MHC-B motor domain in insect cells) (protein, UniProt G5EG62 1-961)
chain: MVARVQTAEEIRDEGNAAVKDQDYIKADELYTEALQLTTDEDKALRPVLYRNRAMARLKRDDFEGAQSDCTKALEFDGADVEALFRRSLAREQLGNVGPAFQDAKEALRLSPNDKGIVEVLQRLVKANNDKIKQTTSLANKVTDMEKLAFRGEAKDTEQKMTALNNLLVLCRESESGATGVWNQGALVPFVLNLINDASENEEVTVTAIRILDETIKNSVRCMKFLAMHDPDGPKSVRFVCRLMCKKSTKDFVDATGILVQRVFNAMAKMDRQKEMKPDPEVAEANKIWIIRVLLELQEMLQDPKVGAVQRETCIDLFLKNLMHMDGGIPRGWSWKFVEERGLLALLDVASQIPELCEYPVSAETRQHVAICLQRLEEDMVFDTKRTIFKEKVDMFFNALISRCTNDDEGHKYRIKLSCFLITMLQGPVDIGINLITNDQLTPIMLEMAASQDHLMQGIAAELIVATVSKHERAINMLKVGIPVLRALYDSEDPTVKVRALVGLCKIGAAGGDDISKATMKEEAVISLAKTCKKFLLETEKYSVDIRRYACEGLSYLSLDADVKEWIVDDSLLLKALVLLAKKAGALCVYTLATIYANLSNAFEKPKVDEEMVKLAQFAKHHVPETHPKDTEEYVEKRVRALVEEGAVPACVAVSKTESKNALELIARSLLAFAEYEDLRGRIIAEGGTVLCLRLTKEASGEGKIKAGHAIAKLGAKADPMISFPGQRAYEVVKPLCDLLHPDVEGKANYDSLLTLTNLASVSDSIRGRILKEKAIPKIEEFWFMTDHEHLRAAAAELLLNLLFFEKFYEETVAPGTDRLKLWVLYSAEVEEERLSRASAAGFAILTEDENACARIMDEIKSWPEVFKDIAMHEDAETQRRGLMGIANIMHSSNKLCSEIVSSEVFRVLVAVTKLGTINQERAGSTEQAKRGLEAAEKFGLIKATDREIYERENQMSTIQE
binding [6]: binds

B4: UNC-45 ΔUCS (domain or fragment, UniProt G5EG62)
chain: MVARVQTAEEIRDEGNAAVKDQDYIKADELYTEALQLTTDEDKALRPVLYRNRAMARLKRDDFEGAQSDCTKALEFDGADVKALFRRSLAREQLGNVGPAFQDAKEALRLSPNDKGIVEVLQRLVKANNDKIKQTTSLANKVTDMEKLAFRGEAKDTEQKMTALNNLLVLCRESESGATGVWNQGALVPFVLNLINDASENEEVTVTAIRILDETIKNSVRCMKFLAMHDPDGPKSVRFVCRLMCKKSTKDFVDATGILVQRVFNAMAKMDRQKEMKPDPEVAEANKIWIIRVLLELQEMLQDPKVGAVQRETCIDLFLKNLMHMDGGIPRGWSWKFVEERGLLALLDVASQIPELCEYPVSAETRQHVAICLQRLEEDMVFDTKRTIFKEKVDMFFNALISRCTNDDEGHKYRIKLSCFLITMLQGPVDIGINLITNDQLTPIMLEMAASQDHLMQGIAAELIVATVSKHERAINMLKVGIPVLRALYDSEDPTVKVRALVGLCKIGAAGGDDISKATMKLGTINQERAGSTEQAKRGLEAAEKFGLIKATDREIYERENQMSTIQE
binding [8]: no binding (tested: 1 μM protein, 2 mM peptide)

More lines, main results first:

binding [4]: binds
binding [5]: binds
B1: UFD-2 ubiquitin ligase (C. elegans) (enzyme, UniProt Q09349 1-984)
chain: MIEDEKAGLQPMDISDASVFFFQADVESKDFLTSLFDCEGKSDDRMLRYADAIIDVQNLNFDVSPQCLQSNIAEIITKFVLLSQDGSRRGLSRSFNFIDPDIIAGCREEDAIEFLLINFVRCHHELGKSGTSNCYKKTLESTRKAVFSVFVMIQRGYLESQLRSQHASLVFTKRLLEDTVSNVFLRTLVEYLASTDECDEDAITETFNPIFGILRSGIICQRFEDNKDEIVRQILRVMNLLLSIRLPSNGPRPLSNLLVNREDFLPTPSEKIQGREFGLMSFLGPFFSYGLESSARRPNHRVFVDCEEDARKYDGSVNTEQKLYFQRMDPIRTMLHQLMLPLASDQGSRNKTLRWIATIISTNDIRTRSHYDPSDVLCDHYMTNFLSVMYMFSEKIDLSKIIVDYPFLPSSLINISKETRLKMDESGAVAFASQFADRPDEYHFSTVCFFLTIAAQRLVIPPLMNQISEYSRHLKELKHKINALKEKLNTVSGFERAEVEKKLNYETEHWKLMSRHLLCVKTQAQDPALMASSMDFVDKQMKFILNLLCDNLDLLGDDSQLPTEVSQMFCALPEYFLEDALDFYIFAISNGMKLLMERNADWISRLTVLFTQYHYIKSPFLVSKLVRVLSSIQPPLWFNVVRLRMAQENLLMCMIKFYSDFEDNGDFYEKFNVRGNIQYMLEKMEEDMFYKGKFMDMARECGAEFIRFVNMVINDATWCIDESLSGLKSIHDVEKKMANKVEWDNTDQEIRNQDLGVYEEAKRKVKGWLGTAKSNLKLLLSITVNSPEPFRTPVLGERLAAMLNHNLSQLIGSKASELKVKDPRSYGWEPREFVSLLISIYLKLNMPAFVKYIAYDERTYSPEFFHNAIECMRKNSIVGFSQLESFEHLAEDVKKEYEAKAELEEEYDDVPEEFKDPIMDAIMVDPVKLPSGHVMDRAVIERHLLSTPNNPFNRAPLSHNELSPDSELKAKIQEWICQKRNSKK
binding [3]: no binding (condition: incubated at 4 °C (myosin folded))

binding [7]: binds weakly
B3: Human UNC-45B (protein, UniProt Q8IWX7 1-931)
chain: MAEVEAVQLKEEGNRHFQLQDYKAATNSYSQALKLTKDKALLATLYRNRAACGLKTESYVQAASDASRAIDINSSDIKALYRRCQALEHLGKLDQAFKDVQRCATLEPRNQNFQEMLRRLNTSIQEKLRVQFSTDSRVQKMFEILLDENSEADKREKAANNLIVLGREEAGAEKIFQNNGVALLLQLLDTKKPELVLAAVRTLSGMCSGHQARATVILHAVRIDRICSLMAVENEEMSLAVCNLLQAIIDSLSGEDKREHRGKEEALVLDTKKDLKQITSHLLDMLVSKKVSGQGRDQALNLLNKNVPRKDLAIHDNSRTIYVVDNGLRKILKVVGQVPDLPSCLPLTDNTRMLASILINKLYDDLRCDPERDHFRKICEEYITGKFDPQDMDKNLNAIQTVSGILQGPFDLGNQLLGLKGVMEMMVALCGSERETDQLVAVEALIHASTKLSRATFIITNGVSLLKQIYKTTKNEKIKIRTLVGLCKLGSAGGTDYGLRQFAEGSTEKLAKQCRKWLCNMSIDTRTRRWAVEGLAYLTLDADVKDDFVQDVPALQAMFELAKAGTSDKTILYSVATTLVNCTNSYDVKEVIPELVQLAKFSKQHVPEEHPKDKKDFIDMRVKRLLKAGVISALACMVKADSAILTDQTKELLARVFLALCDNPKDRGTIVAQGGGKALIPLALEGTDVGKVKAAHALAKIAAVSNPDIAFPGERVYEVVRPLVRLLDTQRDGLQNYEALLGLTNLSGRSDKLRQKIFKERALPDIENYMFENHDQLRQAATECMCNMVLHKEVQERFLADGNDRLKLVVLLCGEDDDKVQNAAAGALAMLTAAHKKLCLKMTQVTTQWLEILQRLCLHDQLSVQHRGLVIAYNLLAADAELAKKLVESELLEILTVVGKQEPDEKKAEVVQTARECLIKCMDYGFIKPVS
